Reference: PMC3418226
Results are given in words; binding and its absence hold for the method and conditions named. For some assays here: In cells and extracts the contact can be indirect. Some entries that bind do so weakly or less than the wild type. For some assays here: Sequences can lack the tags named with a protein.

Sequences of proteins named here, by UniProt entry; tags and fusion partners are left off.
UniProt P20963: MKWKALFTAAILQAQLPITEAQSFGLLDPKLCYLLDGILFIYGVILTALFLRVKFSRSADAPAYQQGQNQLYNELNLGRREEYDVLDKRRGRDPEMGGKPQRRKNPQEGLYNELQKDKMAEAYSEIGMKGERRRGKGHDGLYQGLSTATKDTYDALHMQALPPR

B1: SAP (endogenous, Jurkat cells) (protein, UniProt O60880 1-128)
chain: MDAVAVYHGKISRETGEKLLLATGLDGSYLLRDSESVPGVYCLCVLYHGYIYTYRVSQTETGSWSAETAPGVHKRYFRKIKNLISAFQKPDQGIVIPLQYPVEKKSSARSTQGTTGIREDPDVCLKAP
B2: GST-SAP fusion protein (protein, UniProt O60880 1-128)
chain: MDAVAVYHGKISRETGEKLLLATGLDGSYLLRDSESVPGVYCLCVLYHGYIYTYRVSQTETGSWSAETAPGVHKRYFRKIKNLISAFQKPDQGIVIPLQYPVEKKSSARSTQGTTGIREDPDVCLKAP

Legend:
[1] = biological target: CD3ζ from activated T cells, tyrosine-phosphorylated p20-21 forms (human (endogenous in Jurkat and in T-cell blasts)) (UniProt P20963); experiment: co-IP; lysate of Jurkat cells treated with 25 μM pervanadate 30 min, immunoprecipitated with anti-CD3ζ, blotted for SAP
[2] = biological target: CD3ζ from activated T cells, tyrosine-phosphorylated p20-21 forms (human (endogenous in Jurkat and in T-cell blasts)) (UniProt P20963); experiment: far-Western, overlay or dot blot; anti-CD3ζ immunoprecipitate of pervanadate-treated Jurkat cells resolved by SDS-PAGE on PVDF; membrane incubated with purified GST-SAP at 1 μg/mL in TBS, 0.2% Tween, 3% BSA, 1.5 h; detected with anti-GST; both purified

Binder	binding [1]	binding [2]
B1	binds	
B2		binds
